Hit rate of the full screen: of about 360,000 compounds, about 17,000 (4.7%) were called active. This list was built around the results that the source calls inconclusive (neither active nor inactive); the mix of calls is not that of the screen. No stated cut-off is given here; in the data, active means activity change below about -50%; inconclusive means mostly about -30% to -49%; inactive means weaker than that.
Assay: qHTS for Inhibitors of Inflammasome Signaling: IL-1-beta AlphaLISA Primary Screen
Settings: THP-1 LPS/ATP IL-1B secretion, 16 h; at 57.5 µM, stronger effect = lower value
Method in brief: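 Secreted IL-1B measured by AlphaLISA bead assay after 16 h compound exposure of THP-1 cells; compounds (final up to 57.5 uM) added 1 h before LPS (250 ng/mL) and ATP (1.25 mM) stimulation; lower signal means less secretion.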
On the % scale 0 is the no-effect control and ±100 the full control effect.

Activity change, inactive:
COc1ccc(Cl)cc1NS(=O)(=O)c1cn(C)nc1C 31.9%
COc1ccccc1N1CCN(c2ccc3c(c2)S(=O)(=O)c2cccc(C(=O)NCc4ccc(F)cc4)c2C3=O)CC1 -6.07%
Cc1ccccc1NC(=O)C(C)OC(=O)CNS(=O)(=O)c1ccc(C#N)cc1 (configuration not stated) 7.95%
Cc1ccc(NC(=O)Cn2cc(C(=O)C3CC3)c3ccccc32)cc1 7.29%
CCOC(=O)C1CCN(Cc2cc(Cl)c3ccccc3c2O)CC1 -13.8%
CCC(C)NS(=O)(=O)c1ccc(NC(=O)C2CCCO2)cc1 (configuration not stated) 22.9%
CC(C)N(Cc1ccccc1)C(=O)COC(=O)c1cc(S(=O)(=O)N(C)C)ccc1N1CCCC1 -9.64%
Cc1c(C(=O)Nc2c3c(nn2C(C)(C)C)CS(=O)(=O)C3)cccc1[N+](=O)[O-] -20.5%
CCCN(CC1CC1)C(=S)Nc1ccccc1F -11.8%
CC1CN(c2nc3ccccc3nc2NS(=O)(=O)c2ccccc2)CC(C)O1 (configuration not stated) 12.1%
CC(=O)N1CN(C2CCCC2)Cc2c1sc1c2CCCC1 -8.43%
COc1ccc(C2=CC(=O)CC(C)(C)C2)cc1OC -19.4%
Cc1ccc(S(=O)(=O)NCC(=O)N/N=C/c2ccccc2O)cc1 116%
O=C1c2ccccc2C(=O)N1CCc1csc(NNc2nc(CCN3C(=O)c4ccccc4C3=O)cs2)n1 -18.1%
O=C(CCn1c(=O)[nH]c2ccsc2c1=O)N1CCN(c2cccc(Cl)c2)CC1 -10.2%

Activity change, active:
COc1cccc(C=NNc2nnc(NN=Cc3cccc(OC)c3OC)c3ccccc23)c1OC -63.3%
N#C/C(=C/c1ccc(N2CCCCC2)o1)C(=O)NCCc1c[nH]c2ccccc12 -56.8%
COc1ccc(NC(=S)c2ccccc2)cc1 -81.5%
CCc1cc2c(COC(=O)c3cc(S(=O)(=O)N4CCOCC4)ccc3F)cc(=O)oc2cc1O -77.3%
S=C(NCCc1c[nH]c2ccccc12)NC1CCCCC1 -52%
Cc1ccc(Cl)cc1-c1cc(C(=O)NCC2CCCCC2)[nH]n1 -50.8%
CN(C(=O)COC(=O)c1nc(Cl)c(Cl)c(Cl)c1Cl)C1CCS(=O)(=O)C1 (configuration not stated) -99.3%
Cc1oc(-c2ccc(Cl)cc2)nc1CN1CCC(C(=O)NCc2cccnc2)CC1 -58.1%
CCCCC[C@H](C)N1C[C@H](COCc2ccccc2)Oc2cc(N3CCC[C@H]3CO)ccc2S1(=O)=O -55.3%
CCNCc1cc(Cl)c(OCc2ccccc2)c(OCC)c1 -93.4%
CN1CCc2c(sc3c2c(=O)n(-c2ccccc2)c2nnc(SCc4ccc(Cl)cc4)n32)C1 -81%

Activity change, inconclusive:
Cc1cccc(NC(=O)C2Cc3ccccc3CN2C(=O)OCc2ccccc2)c1C (configuration not stated) -33.6%
CC(C)(C)OC(=O)NCCCCCNC(=O)c1[nH]cnc1C(=O)N[C@@H](Cc1ccccc1)C(=O)OCc1ccccc1 -39.8%
Cc1ccc(-c2nn(-c3ccccc3)cc2/C=C/C(=O)Nc2cccc(S(N)(=O)=O)c2)cc1 -43.8%
CC(=O)N1CCN(c2ccc(NC(=O)c3ccc(Br)o3)cc2Cl)CC1 -48.5%
CC(=O)O[C@@H]1[C@H]2[C@@H](C[C@@H](C)[C@@H]3C=CC(=O)[C@@]13C)OC(=O)[C@@H]2C -38.7%
CCCOC(=O)C1=C(C)N(C)C(=O)NC1c1cc2c(cc1Br)OCO2 (configuration not stated) -41.7%
COCCNc1nnc(SCC(=O)Nc2sc3c(c2C(=O)c2ccccc2)CCCC3)s1 -41.5%
O=C(CSc1nc2c([nH]c3ccccc32)c(=O)n1-c1ccccc1F)NCC1CCCO1 (configuration not stated) -33.4%
Cc1nn(Cc2ccc(Cl)cc2)c(C)c1NC(=O)C(c1ccccc1)c1ccccc1 -30.9%
CC1(C)Cc2ccccc2-c2nnc(SCC(=O)Nc3ccc4c(c3)OCO4)n21 -46.6%
O=C(NCC(F)(F)F)c1cc2c(c(-c3cccc(-c4ccccc4F)c3)n1)[C@@H](CCO)N(C(=O)CC1CC1)C2 -41.4%
CCOC(=O)c1cnn(-c2ccc(C)cc2)c1N -44.5%
COc1cccc(C(=O)C2CCCN(Cc3cccc(-n4cccn4)c3)C2)c1 (configuration not stated) -30%
CC(C)(C)c1nc2cc(Cl)c([N+](=O)[O-])cc2o1 -44.2%
C=CCNC(=O)Nc1cc(Cl)ccc1OC -33.3%
C/C(=N/NS(C)(=O)=O)c1ccc2ccccc2c1 -34.5%
Cn1cccc1Cc1nnc(SCC(=O)Nc2ccc3c(c2)OCCO3)n1CCc1ccccc1 -34.2%
CCN1CCN(Cc2ccc(NC(=O)c3cc(NC(=O)c4nccnc4N)cc(OC)c3)cc2C(F)(F)F)CC1 -30.5%
CCc1ccc(N(C(=O)c2ccoc2C)C(C(=O)NC2CCCC2)c2ccc(OC)cc2)cc1 (configuration not stated) -38.8%
CCOc1cc(C(=O)NC2=NCCS2)cc(OCC)c1OCC -43.3%
CCNC(=S)N(CCN(CC)CC)Cc1cc2cc3c(cc2[nH]c1=O)OCCO3 -39.2%
CCOC(=O)c1ccc(NC(=O)C2(c3ccc(OC)cc3)CCCC2)cc1 -34.3%
CCCCC1C(=O)CC[C@H]2[C@@H]1CC(=O)[C@@H]2C/C=C\CCCC(=O)O (some centres not stated) -32%
O=C1N[C@@H](Cc2ccccc2)COC(=O)[C@H](Cc2ccc(F)cc2)CC/C=C/C[C@@H]1CC(=O)N(CCO)Cc1ccccc1 -35.1%
C[C@]12CCC(=O)C=C1CC[C@@H]1[C@@H]2[C@@H](O)C[C@@]2(C)[C@H]1CC[C@]2(O)C(=O)CO -41%
NNc1nc(-c2ccccc2)cc(-c2ccccc2)n1 -43.1%

— PubChem BioAssay AID743279 (National Center for Advancing Translational Sciences (NCATS), 2014)
